In the supplement of paper PMC3724861:
The other results are listed elsewhere or left out.

Tested on: T1, Caupolican (Caup) homeodomain DNA-binding domain
T1 sequence: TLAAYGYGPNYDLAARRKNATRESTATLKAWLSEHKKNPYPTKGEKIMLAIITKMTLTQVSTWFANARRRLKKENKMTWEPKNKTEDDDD
Experiment: PBM E-score (8-mer, recovered from the published 9-mer minima) (E-score (dimensionless, -0.5 to 0.5)); Drosophila protein; higher = stronger relative binding preference, active = 0.31 or more
Procedure, shortened: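 Caup's homeodomain DNA-binding domain (residues 214-303) was made by in vitro transcription and translation and applied at 100 nM to custom-designed protein binding microarrays. Each value is an enrichment score that gives relative binding preference for a short DNA word, with higher meaning stronger. The 8-mer values were recovered from published 9-mer scores, each of which was the minimum of its two constituent 8-mer scores. A cutoff of 0.31 marks candidate sites.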

Row | Sequence | PBM E-score
1 | AAGTCATC | inactive: -0.0589
2 | CTACCGCC | inactive: -0.187
3 | AAAAGTCC | ≥ 0.0371
4 | AAGAAGGT | ≥ 0.0544
5 | AGTCCACT | inactive: -0.0123
6 | CGATTCTA | inactive: -0.0767
7 | CTGCCAAA | inactive: -0.0727
8 | AGATAGGG | inactive: -0.107
9 | TGGAGGAA | inactive: -0.0989
10 | CGATAAGC | inactive: -0.0419
11 | ACCGGTAC | inactive: -0.00124
12 | GAATGCAA | inactive: 0.095
13 | AGACCAAG | inactive: -0.00436
14 | ATGCGAAT | inactive: 0.047
15 | GAAAATGA | inactive: 0.0722
16 | AATAATGA | inactive: 0.127
17 | AATAGATC | inactive: 0.0711
18 | CGCGAGGC | inactive: -0.143
19 | ACGGGCAC | inactive: -0.15
20 | AACCTTAT | inactive: 0.0286
21 | CCAGTCAA | inactive: -0.0187
22 | AACGGATA | inactive: 0.0208
23 | ACTCCGGA | inactive: -0.0149
24 | TCTAAAGA | ≥ 0.0413
25 | CCTTAGCC | inactive: -0.134

Row | Sequence | PBM E-score
26 | CGGAATTA | inactive: 0.121
27 | GGCCACCA | inactive: -0.166
28 | GCGGTATA | inactive: -0.0365
29 | CGTCCATA | inactive: -0.0481
30 | ACACGAGT | ≥ 0.27
31 | AGAGCAAG | inactive: 0.0346
32 | CCAAGCGG | inactive: -0.157
33 | ACGATCCC | inactive: -0.0422
34 | ACAATCGT | inactive: 0.207
35 | GGTACTAA | inactive: 0.165
36 | GTGGCTAA | inactive: -0.0321
37 | TTGACAAA | inactive: 0.181
38 | AAAGGGGG | inactive: -0.202
39 | CCAACAGG | inactive: -0.0339
40 | CTATATAC | inactive: 0.214
41 | CCCGTTCA | inactive: -0.168
42 | CTGTGAAG | inactive: -0.0616
43 | CCTGTTAC | inactive: 0.254
44 | CGAACAGC | inactive: 0.0486
45 | CCCTGTGA | inactive: -0.0613
46 | CGATCTAC | inactive: 0.0208
47 | GTTGCTAA | inactive: 0.115
48 | AATCAAAC | inactive: 0.199
49 | GGTTCATA | inactive: 0.0948
50 | CCCCCCGG | inactive: -0.377

Row | Sequence | PBM E-score
51 | AGGCATCC | inactive: -0.0572
52 | ATAACACG | active: ≥ 0.334
53 | ATTTCCCA | ≥ 0.0591
54 | GGAAGTTA | inactive: 0.0728
55 | ACTACAAT | inactive: 0.19
56 | GGCGCGCC | inactive: -0.246
57 | CTAGCCGC | inactive: -0.223
58 | CCACTTAC | inactive: 0.062
59 | AGAGATCC | inactive: -0.0181
60 | AAGGCTAT | inactive: -0.0925
61 | CCCGAAAG | inactive: -0.112
62 | CATGTGGC | inactive: 0.0747
63 | AGGCAGAA | inactive: -0.0172
64 | AGATCACA | inactive: 0.134
65 | ACGATGGG | inactive: -0.0434
66 | CTATAACA | inactive: 0.257
67 | AGATTCCC | inactive: -0.109
68 | CCCCTCCA | inactive: -0.184
69 | ACATGAAT | active: 0.336
70 | CGCTCTCC | inactive: -0.179
71 | AACTGCTC | inactive: -0.0403
72 | CCTGGGGC | inactive: -0.352
73 | CATCTGCC | inactive: -0.082
74 | GCCCTCAC | inactive: -0.175
75 | CTCCGCAC | inactive: -0.157

Row | Sequence | PBM E-score
76 | CATTTCAC | inactive: 0.0231
77 | TAATCAGA | inactive: 0.129
78 | CCATTATC | inactive: 0.0795
79 | CCAGTCCG | inactive: -0.149
80 | GGGTTACC | inactive: -0.093
81 | GTTGGCTA | inactive: -0.089
82 | ACGCGCCC | inactive: -0.159
83 | AACAGATC | inactive: 0.172
84 | GTCTTAGA | inactive: 0.00318
85 | CGTGCAAC | inactive: 0.079
86 | GCTGCTAA | inactive: -0.0431
87 | AATACAGG | inactive: 0.17
88 | ATAGCCTA | ≥ 0.029
89 | ATAACGGA | inactive: 0.129
90 | AGGCTTAT | inactive: -0.0948
91 | GATGGTAC | inactive: 0.138
92 | ACAACCCC | inactive: 0.115
93 | ATCAGATC | inactive: 0.0435
94 | CAATTGTA | inactive: 0.193
95 | AGCACACT | inactive: 0.0205
96 | AAGCGGTC | inactive: -0.127
97 | ATCCAGTC | inactive: -0.00608
98 | GCGGTACA | inactive: 0.173
99 | ACGTTCAG | inactive: -0.0385
100 | AACGAGTA | inactive: 0.122

Row | Sequence | PBM E-score
101 | CGTGGATA | inactive: 0.0269
102 | ATCAAACC | inactive: 0.0467
103 | GCATAGCC | inactive: -0.0916
104 | AGACTACC | inactive: 0.0412
105 | GGTTAATA | inactive: 0.0577
106 | CAGCTGGG | inactive: -0.0926
107 | CTGCCGTC | inactive: -0.128
108 | GAAATCCA | inactive: 0.0118
109 | CTTCGCTC | inactive: -0.146
110 | ATAGACCG | inactive: -0.0331
111 | GACTTTTA | inactive: 0.0139
112 | CTGTTGCC | inactive: -0.0424
113 | AAGTGATT | inactive: 0.112
114 | ATTCCTCC | inactive: -0.0176
115 | CTAACGAA | inactive: -0.161
116 | CTGTTCGA | inactive: 0.126
117 | GGGTGAAC | inactive: -0.0277
118 | ATAGCCCG | inactive: -0.155
119 | GTGTTTAA | inactive: 0.262
120 | ACGATTAG | inactive: 0.124
121 | GCAAAAGA | inactive: -0.129
122 | ATACGCGG | inactive: -0.0948
123 | AGGGACTG | inactive: -0.111
124 | AGCGCGCC | inactive: -0.311
125 | ATGAGCAA | inactive: 0.127

Row | Sequence | PBM E-score
126 | AAGACGAT | inactive: 0.0898
127 | GCGTACTA | inactive: 0.114
128 | CGAAGTGA | inactive: 0.0167
129 | ACAAGTGA | inactive: 0.302
130 | CACTAACC | inactive: 0.0258
131 | GACACCCC | inactive: -0.0671
132 | AGGACAGC | inactive: 0.0177
133 | GCATAGAC | inactive: 0.0136
134 | AGAAACAT | inactive: 0.285
135 | ACGTTCGG | inactive: -0.177
136 | GCACGAGC | inactive: -0.154
137 | AGTCTACC | inactive: -0.0715
138 | ACTGTTAG | inactive: -0.0526
139 | GCTCCGCC | inactive: -0.368
140 | AGGGACCA | ≥ -0.0946
141 | CCGGTCAC | inactive: -0.0687
142 | AGAAACTC | inactive: -0.014
143 | CTCAACTC | inactive: -0.0748
144 | ACCGCGTA | inactive: -0.0231
145 | ATACAGGA | inactive: 0.13
146 | GCTACTCA | inactive: 0.0547
147 | AACGATCT | inactive: -0.00898
148 | ACCATCGG | inactive: -0.0896
149 | AGCGCACT | inactive: -0.125
150 | CCAACGGA | inactive: -0.128

Row | Sequence | PBM E-score
151 | CTGGTGGA | inactive: -0.052
152 | GGCGCCCA | inactive: -0.232
153 | CCGTAAAG | inactive: -0.108
154 | AAATCATG | inactive: 0.253
155 | GAAAATAC | inactive: 0.0139
156 | CCTTGTGC | inactive: 0.0734
157 | CGCCGAGC | inactive: -0.214
158 | GAGGTTAC | inactive: 0.0294
159 | TGCCCCAA | ≥ -0.0515
160 | CGTAGACA | inactive: 0.122
161 | ATTCAGCA | ≥ 0.0918
162 | CTTTTCAA | inactive: 0.00741
163 | CAAAGAGC | inactive: -0.0981
164 | GGAGCCCC | inactive: -0.353
165 | CGGGGTTC | inactive: -0.236
166 | CAAATACG | inactive: 0.0614
167 | AACGAATG | inactive: 0.00089
168 | CAGTATAC | inactive: 0.0966
169 | AAAGGGAA | inactive: -0.0223
170 | CTAAATGC | inactive: -0.0311
171 | GGGGGAAA | inactive: -0.24
172 | ATTAGAAG | inactive: 0.0339
173 | CAACAGAA | inactive: 0.14
174 | CAGGCCAG | inactive: -0.0761
175 | CCAGGAGG | inactive: -0.118

Row | Sequence | PBM E-score
176 | CAGACAAG | inactive: 0.21
177 | GATGGTTA | inactive: 0.0754
178 | AAATCGAA | inactive: 0.0984
179 | ATCCGAGG | inactive: -0.0206
180 | AGGTTGCA | ≥ 0.0564
181 | CCAAAATA | inactive: -0.0076
182 | ATGCGAAG | inactive: -0.00808
183 | CATGTCAC | active: 0.446
184 | ATACTGAG | inactive: 0.0973
185 | TCCCCCGA | inactive: -0.215
186 | AAAGGTAC | inactive: 0.12
187 | AATCGATG | inactive: 0.168
188 | GCAAGTCC | inactive: -0.0418
189 | ATTACCAA | inactive: 0.0838
190 | CCGCTACA | inactive: 0.0971
191 | AACATGCC | inactive: 0.302
192 | GGTACCCA | inactive: -0.0718
193 | AAGGGCCG | inactive: -0.143
194 | AGACCATA | inactive: 0.0423
195 | CTTAGTGA | inactive: 0.0224
196 | ATGACTCC | inactive: 0.0128
197 | CGAGCCGA | inactive: -0.0434
198 | CTCGGGCA | inactive: -0.102
199 | AGTCACCG | inactive: -0.0849
200 | CAAGAAAA | inactive: 0.0892

Row | Sequence | PBM E-score
201 | CAATGGAG | inactive: -0.0643
202 | TACCCGCA | ≥ 0.0197
203 | AGAAAGCC | inactive: -0.132
204 | CGTTCTAC | inactive: 0.0361
205 | CTCTCCTC | inactive: -0.078
206 | ACCCGCGG | inactive: -0.108
207 | AGCCTCGA | inactive: -0.0145
208 | GCTTACAA | inactive: 0.22
209 | AAAGGGAT | inactive: 0.0307
210 | CCCTGAAG | inactive: -0.207
211 | GACTTGAA | inactive: -0.0234
212 | TAATGTAA | active: 0.315
213 | AGCAGCCA | inactive: -0.0182
214 | AGAAACCC | inactive: -0.0509
215 | ATGTACCA | active: 0.36
216 | GCCAGCCA | inactive: -0.264
217 | CCCTGGGA | inactive: -0.259
218 | CAACTACA | inactive: 0.287
219 | GATCGATC | inactive: 0.00221
220 | CACTCGAG | inactive: -0.0613
221 | GATGTGAC | inactive: 0.0986
222 | CCTCCTCC | inactive: -0.149
223 | CCTGGAGA | inactive: -0.174
224 | GACATGGA | active: 0.345
